# Data published in PubChem BioAssay AID588342 (National Center for Advancing Translational Sciences (NCATS), 2011).
# Hit rate of the full screen: of about 360,000 compounds, about 25,000 (6.9%) were called active. The inconclusive results got no clear call from the source; some entries with a clear call stand among them for comparison. Calls come from the whole dose curve; as a rule, active = well fitted inhibition curve with a large enough effect; inconclusive = small, poorly fitted or top-dose-only effect; inactive = flat fitted curve, though single readings scatter. A potency beside an inconclusive call is a rough fit, not a confirmed value.
# Biological target: Luciferin 4-monooxygenase (Photinus pyralis) (UniProt P08659)
# Assay: qHTS profiling assay for firefly luciferase inhibitor/activator using purifed enzyme and Km concentrations of substrates (counterscreen for miR-21 project); note: nearly all actives have a fitted effect of over 55% in size
# Conditions: purified FLuc, luminescence inhibition; series mostly up to 57.5 µM
# How it was run: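 Purified P. pyralis luciferase, 10 nM final, with Km-level 10 uM D-luciferin and 10 uM ATP in 50 mM Tris acetate pH 7.5, 10 mM Mg acetate, 0.01% Tween-20, 0.05% BSA; 6-point qHTS titration about 60 µM downward; luminescence read.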
# Potency is the fitted concentration of half-maximal effect; tags give direction and shape of the fitted curve.
# UniProt P08659, sequence (P08659 whole entry, looked up): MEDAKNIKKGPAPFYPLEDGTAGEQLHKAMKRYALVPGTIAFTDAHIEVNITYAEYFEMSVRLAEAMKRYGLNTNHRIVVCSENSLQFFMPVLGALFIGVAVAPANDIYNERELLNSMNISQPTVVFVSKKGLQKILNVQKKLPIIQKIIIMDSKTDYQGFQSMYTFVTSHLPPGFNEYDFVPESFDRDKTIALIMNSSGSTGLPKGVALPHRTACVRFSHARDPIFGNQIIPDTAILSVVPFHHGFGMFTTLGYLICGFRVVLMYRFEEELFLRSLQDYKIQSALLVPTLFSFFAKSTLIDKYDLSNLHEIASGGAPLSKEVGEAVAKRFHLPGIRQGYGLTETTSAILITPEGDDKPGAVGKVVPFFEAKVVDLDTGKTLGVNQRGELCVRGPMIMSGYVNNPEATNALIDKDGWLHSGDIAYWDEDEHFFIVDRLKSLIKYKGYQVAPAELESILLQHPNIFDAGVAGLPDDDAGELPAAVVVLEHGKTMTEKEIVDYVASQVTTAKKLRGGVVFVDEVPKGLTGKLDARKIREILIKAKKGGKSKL
row,SMILES,Potency
1,Cc1ccc(S(=O)(=O)c2c(Nc3cc(F)ccc3F)sc(C(=O)c3ccc(F)cc3)c2N)cc1,inactive
2,O=C(CCN1CCc2ccccc21)c1ccc2c(c1)OCCO2,active: 8.49 µM
3,COc1ccccc1OCc1ccc(C(=O)NN)o1,"inconclusive: 9.53 µM [inhibitor, partial curve]"
4,CC1CCCC(NC(=O)c2n[nH]c(=O)c3ccccc23)C1C (stereo not given),"inconclusive: 26.9 µM [inhibitor, partial curve, poor fit]"
5,Cc1cc(C(=O)COc2ccccc2C(N)=O)c(C)n1C,"inconclusive: 21.3 µM [inhibitor, partial curve, poor fit]"
6,COc1ccc(-c2noc(CNS(=O)(=O)c3ccccc3)n2)cc1,"inconclusive: 33.8 µM [inhibitor, partial curve, poor fit]"
7,O=C1Nc2ccccc2/C1=N/N=C/c1cccc(O)c1,"inconclusive: 26.9 µM [inhibitor, partial curve]"
8,Cc1ccc(C(=O)Nc2ccc(OCc3cc(=O)n4c(C)csc4n3)cc2)cc1,inactive
9,Clc1ccccc1N1CCN(Cc2ccco2)CC1,"inconclusive: 21.3 µM [inhibitor, single point]"
10,Cc1nc(-c2ccc(Cl)cc2)sc1CCNC(=O)c1cccs1,"inconclusive: 21.3 µM [inhibitor, partial curve, poor fit]"
11,O=C(COC(=O)C1CC2C=CC1C2)Nc1ccc2c(c1)OC(F)(F)O2 (stereo not given),"inconclusive: 37.9 µM [inhibitor, partial curve, poor fit]"
12,Cc1ccccc1OCC(=O)OCC(=O)c1cc(C)n(C2CC2)c1C,"inconclusive: 21.3 µM [inhibitor, single point]"
13,O=C(O)Cc1ccc(NC(=O)Nc2cccc3ccccc23)cc1,inactive
14,O=C(N=C1c2ccccc2CN1c1ccc(F)c(Cl)c1)c1cccnc1Cl,active: 15.1 µM
15,O=C(c1ccc(Cl)c(S(=O)(=O)N2CCOCC2)c1)N(Cc1nnc(-c2ccccc2Cl)o1)C1CC1,inactive
16,Cc1c(/C=N/Nc2ccc(C(=O)O)cc2)c2ccccc2n1C,active: 10.7 µM
17,CCCc1cc(=O)oc2cc(OCc3ccc(C(=O)O)cc3)ccc12,"inconclusive: 37.9 µM [inhibitor, single point]"
18,O=C1/C(=C/c2ccccc2Cl)SC(=S)N1CCC(=O)N1CCCCC1CCO (stereo not given),"inconclusive: 26.9 µM [inhibitor, partial curve, poor fit]"
19,CCc1ccc(CN(C)C(=O)CCc2nnc(COc3ccccc3)o2)cc1,"inconclusive: 19 µM [inhibitor, partial curve]"
20,Cc1ccc(-n2nc(C)c(NC(=O)CCl)c2C)cc1C,"inconclusive: 26.9 µM [inhibitor, single point]"
21,O=C(N/N=C/c1c(O)ccc2ccccc12)c1cccnc1,"inconclusive: 37.9 µM [inhibitor, partial curve, poor fit]"
22,COc1ccccc1CNC(=O)c1ccc2c(=O)n3c(nc2c1)CCCCC3,inactive
23,C(=N\n1cnnc1)/c1ccc(OCc2ccccc2)cc1,"inconclusive: 26.9 µM [inhibitor, partial curve, poor fit]"

row,SMILES,Potency
1,CC(C)Cc1cc(C(=O)Nc2c(F)cc(F)cc2Br)no1,"inconclusive: 21.3 µM [inhibitor, single point]"
2,O=C1COc2ccc(C(=O)CSc3ccccc3C(=O)O)cc2N1,"inconclusive: 26.9 µM [inhibitor, single point]"
3,O=c1cc(CO)oc(C(Nc2ccccn2)c2ccc(F)cc2)c1O (stereo not given),"inconclusive: 37.9 µM [inhibitor, partial curve, poor fit]"
4,COc1cccc(C(C(=O)NC2CCCC2)N(C(=O)c2ccco2)c2ccccc2F)c1OC (stereo not given),inactive
5,COc1ccccc1-c1csc(N2CCC(C(N)=O)CC2)n1,"inconclusive: 9.53 µM [inhibitor, partial curve]"
6,Cc1ccc(C(=O)NCC(c2cccs2)N(C)C)cc1S(=O)(=O)N1CCOCC1 (stereo not given),"inconclusive: 1.07 µM [inhibitor, full curve, poor fit]"
7,Nc1nonc1-c1noc(-c2ccccc2)n1,"inconclusive: 12 µM [inhibitor, partial curve]"
8,CC(=O)/C=C/n1c(=S)oc2ccccc21,active: 5.36 µM
9,C=CCN1C(=O)c2ccccc2Sc2ccc(C(=O)NCC(OC)OC)cc21,inactive
10,O=C(COc1ccccc1Cl)N1CCc2ccccc2C1,"inconclusive: 21.3 µM [inhibitor, partial curve, poor fit]"
11,Cc1ccc(C)c(NC(=O)c2ccc3c(=O)n4c(nc3c2)CCC4)c1,active: 15.1 µM
12,COc1ccc(NC(=O)CSc2ccccn2)c([N+](=O)[O-])c1,"inconclusive: 37.9 µM [inhibitor, single point]"
13,COc1cccc(-n2c(SC)nnc2-c2c[nH]c3ccccc23)c1,"inconclusive: 30.1 µM [inhibitor, single point]"
14,CC(=O)Nc1ccccc1-c1nc2ccccc2n(Cc2cccc(Br)c2)c1=O,inactive
15,COc1ccccc1OCc1nnc(SCC(=O)Nc2ccc(N3CCOCC3)cc2)n1C,active: 12 µM
16,CCOC(=O)Nc1ccc(C)cc1Br,"inconclusive: 37.9 µM [inhibitor, partial curve, poor fit]"
17,CCOC(=O)c1c(C)[nH]c(C(=O)CSc2nccc(C)n2)c1C,"inconclusive: 3.01 µM [inhibitor, partial curve, poor fit]"
18,Cc1cc(C)c(NC(=O)Cn2nnc(-c3ccccc3)n2)c(C)c1,inactive
19,C=C(C)Cn1c(SCC(=O)O)nnc1-c1ccc(C(C)(C)C)cc1,"inconclusive: 26.9 µM [inhibitor, single point]"
20,COc1cccc(/C=C2\SC(=O)N(CCC(=O)N3CCC(C(=O)O)CC3)C2=O)c1,"inconclusive: 23.9 µM [inhibitor, partial curve]"
21,CCN(CC)c1ccc(/C=N/NC(=O)c2ccco2)cc1,active: 1.51 µM
22,CN(C)c1cc[n+](/C(C(=S)Nc2ccc(SC(F)F)cc2)=C(/[O-])c2ccccc2)cc1,inactive
